{"source": "paper PMC12074421", "about": "“Development and Characterization of pFluor50, a Fluorogenic-Based Kinetic Assay System for High-Throughput Inhibition Screening and Characterization of Time-Dependent Inhibition and Inhibition Type for Six Human CYPs” (Molecules, 2025)", "substrate": "O=C(OCc1ccccc1)c1ccccc1-c1c2ccc(=O)cc-2oc2cc(OCc3ccccc3)ccc12", "assay": "pFluor50 Michaelis–Menten kinetics, CYP3A4 with DBF", "assay_type": "in vitro ADME, human", "settings": "pH 7.4", "method": "In general, the protocol for determination of the Michaelis–Menten kinetic parameters (KM and Vmax) involved addition of the appropriate master mix to phosphate buffer followed by addition of the appropriate amount of enzyme to the mix. The master mix was determined for each specific CPY450 based on empirical methods involving each reagent to obtain a linear range of enzyme activity. A total of 30 µL of this enzyme mix was then added to each well of the 384-well plate. Next, initial background readings were taken for 5 min, after which the appropriate amount of substrate was dispensed into each well using the onboard reagent dispenser of the plate reader. All plates contained one blank well without enzyme (only master mix) for each substrate concentration. […] Table 1 provides the formulation of the master mix for each CYP, the kinetic read time with substrate, the read time interval, the concentration range of the substrate used for the Michaelis–Menten kinetics, the Ex and Em wavelengths, and the concentration of substrate for inhibition/activation screening. Table S1 details the specific parameters used for the plate reader for each CYP–substrate pair.\nFor determining the Michaelis–Menten kinetic parameters (KM and Vmax) for each CYP–substrate pair, kinetic studies were performed in which a range of different concentrations of the substrate were used. Table 1 details the formulations for the master mix, CYPexpress^TM concentrations, and concentration ranges of each specific substrate. For each CYP–substrate pair, plate reader parameters were set up as described in Table S1. The protocol used for Michaelis–Menten kinetics was similar for all the CYPs. Briefly, the working solution was prepared for each substrate and then primed into one of the dispensers on the plate reader. The other dispenser was primed with the buffer solution. 1.5 mL of phosphate buffer solution (pH 7.4) was used to prepare the master mix with the appropriate concentration of each reagent as specified in Table 1 (NADPH, NADP+, G6P, G6PDH, and/or MgCl2). The amount of CYPexpress reagent in units/(mg/mL) was determined for each enzyme as new lots may have slightly different activities, and the activity of the reagent may change over time. The appropriate mass of each CYPexpress^TM reagent needed to obtain the required units was measured using an analytical balance and was transferred to the master mix solution. This solution was mixed, and 30 µL of the solution was added to each well using a multichannel pipette. […] The plate was then transferred to the plate reader and readings were taken at the time intervals, for the appropriate length of time, and at the appropriate wavelengths as specified in Table 1.\nCalibration curves were constructed using the determined plate reader settings (Figure S3) and concentrations of the products formed to allow for the calculation of product formation rates based on the observed fluorescence. For these calculations, we presumed that the total increase in observed fluorescence over time was due only to product formation. Calibration curves were generated with 6 different concentrations of the products (fluorescein and resorufin), which spanned the relative fluorescence units (RFU) observed during the kinetic experiments. […] Therefore, the exact rate of formation could not be determined, and the Vmax for CYP3A4 cleavage of dibenzyl fluorescein has been reported as the rate of change in relative fluorescence units (RFUs) per minute.", "key": {"[1]": {"settings": "other: CYP3A4 1 mg/mL, three biological replicates"}}}
{"protein": "CYP3A4 (Homo sapiens) (protein, purchased Sigma Aldrich (CYPexpress, Oxford Biomedical Research, Inc.) MTOXCE3A4) ALIPDLAMETWLLLAVSLVLLYLYGTHSHGLFKKLGIPGPTPLPFLGNILSYHKGFCMFDMECHKKYGKVWGFYDGQQPVLAITDPDMIKTVLVKECYSVFTNRRPFGPVGFMKSAISIAEDEEWKRLRSLLSPTFTSGKLKEMVPIIAQYGDVLVRNLRREAETGKPVTLKDVFGAYSMDVITSTSFGVNIDSLNNPQDPFVENTKKLLRFDFLDPFFLSITVFPFLIPILEVLNICVFPREVTNFLRKSVKRMKESRLEDTQKHRVDFLQLMIDSQNSKETESHKALSDLELVAQSIIFIFAGYETTSSVLSFIMYELATHPDVQQKLQEEIDAVLPNKAPPTYDTVLQMEYLDMVVNETLRLFPIAMRLERVCKKDVEINGMFIPKGVVVMIPSYALHRDPKYWTEPEKFLPERFSKKNKDNIDPYIYTPFGSGPRNCIGMRFALMNMKLALIRVLQNFSFKPCKETQIPLKLSLGGLLQPEKPVVLKVESRDGTVSGA", "values": [{"measurement": "Km", "setting": "[1]", "result": "1.77 ± 0.3", "unit": "µM"}, {"measurement": "Vmax", "setting": "[1]", "result": "91.20 ± 13.9 (RFU/min)"}, {"measurement": "Km", "setting": "other: CYP3A4, biological repeat 1", "result": 2.12, "unit": "µM"}, {"measurement": "Km", "setting": "other: CYP3A4, biological repeat 2", "result": 1.56, "unit": "µM"}, {"measurement": "Km", "setting": "other: CYP3A4, biological repeat 3", "result": 1.61, "unit": "µM"}]}
